From the supplement of paper PMC11417369 come the findings set out here.

Some of the results follow.

The test has as its system PfSIP2 AP2 domain 1 (GST-tagged). Nature of the test: gcPBM binding intensity (ln(normalized median fluorescence intensity)); higher = stronger DNA binding. Put shortly: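 DNA-binding domains from P. falciparum, fused to GST and produced in E. coli, were put on an Agilent 4 × 180k double-stranded probe array for 1 h in 1× PBS holding 1% milk, 0.2 mg/ml BSA, 0.5% salmon testes DNA and 0.03% Triton X-100. Probes were primer-extended, 36 bp long and drawn from intergenic genomic regions, with negative controls included. After Alexa488 anti-GST antibody detection and a 488 nm scan, binding intensity was set as the highest Masliner-normalised natural-log median intensity across replicate spots of either probe orientation.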
For the sequence “ATTCCAAAAAAATCAAGTACTAATTTATTATATTAC [XGTACX_site3920]”, the “gcPBM binding intensity (ln)” value amounted to 6.9. For “AAAAAAAAAAAAAAAAAAATATATTATATATATATA [XGTACX_negctrl_site467]”, the “gcPBM binding intensity (ln)” value came to 9.19.

For “TCAAAAAATATATTTGCACACTCAAAAAAAAAAAAA [CACACA_site860]”, the “gcPBM binding intensity (ln)” value is 7.21. As to “TACACACATTACAGATGTACATAAAATTAAAAAAAT [XGTACX_site1804]”, the “gcPBM binding intensity (ln)” value came to 7.21. The same measure for “TATATATATATAAATACATGCATATAATTAATCCAT [TGCATGCA_site400]”: 8.89; for “ACAGGAGTATAACCTCGTACAAAATATATTTACCAT [XGTACX_site5805]”: 7.13; for “CCTAGAAAAGCATATACACACGCGCAAAATAAAATT [CACACA_site4902]”: 7.03. For “TCTTTAAAAAAAAAAAAAAAAAATTCCAAATAAATA [TGCATGCA_negctrl_site538]”, the “gcPBM binding intensity (ln)” value worked out at 6.72. The same measure for “TAAAAATAAAGAAAATGTACATAAATAAAAATAAAG [XGTACX_site2279]”: 7.32. The same measure for “TATATATATACATAATGTACAAGAATTTGTATTGAA [XGTACX_site627]”: 8.26; for “TGTAGAAATGGGTGCACACACATATAAAATCTATAT [CACACA_site7224]”: 12.2. Regarding “TAAAAAAATAAATATACACACATATATATATATATA [CACACA_site1089]”, the “gcPBM binding intensity (ln)” value worked out at 9.63. For the sequence “GGATTTATTATATATACACACATACAGATATATATA [CACACA_site5222]”, the “gcPBM binding intensity (ln)” value came to 7.13. On to “TCATTAAAAACTAAAAGTACTCAATATTATGAACAT [XGTACX_site7807]”, for which the “gcPBM binding intensity (ln)” value amounted to 6.96. For the sequence “CATATATATTTGTTCACACACACACTAGAAAAAAAA [CACACA_site5380]”, the “gcPBM binding intensity (ln)” value was determined as 7.29. Take “ATAAAAAATAAAATAAATAAAAAATATTTACCCTTA [TGCATGCA_negctrl_site396]”: the “gcPBM binding intensity (ln)” value worked out at 6.55.

With “ATATTGTAGATATTGTGTACATATTTTACAACTTTT [XGTACX_site7621]”, the “gcPBM binding intensity (ln)” value was 6.94. As to “TATGTACACCCATATACACACCTCTATAATATATAT [CACACA_site4563]”, the “gcPBM binding intensity (ln)” value is 7.29. Then “ACATCATATTAAGAAAGTACAAAAAGAGAACATATA [XGTACX_site1268]”, with 6.96. In the case of “AAACAAAATTTATTTCAAAGTTAATAATTTTTATGT [CACACA_negctrl_site232]”, the “gcPBM binding intensity (ln)” value was 6.79.

As for “ATGAATAAATAGGTCACACACAAATATATATAAATA [CACACA_site2416]”, the “gcPBM binding intensity (ln)” value came to 6.98. In the case of “TTGTTCGATATATGCACACAGTTTTGTTATTTTTCC [CACACA_site4972]”, the “gcPBM binding intensity (ln)” value is 7.37.

For “CACTACACTGTTAATAGTACATATATTTAAAAAAAA [XGTACX_site7371]”, the “gcPBM binding intensity (ln)” value worked out at 7.35. As to “AAAAAAAACGGACACACACACATAAATATATATAAA [CACACA_site4260]”, the “gcPBM binding intensity (ln)” value is 7.32. “CACACCCACCAACACACACACAAAAAAAAAAAGAAA [CACACA_site500]”: the “gcPBM binding intensity (ln)” value amounted to 7.45. For the sequence “ATATTTTATTTTAATACACACAAGTTATATAATCAC [CACACA_site780]”, the “gcPBM binding intensity (ln)” value was determined as 6.97. Then “AAAAGGTATAGAAACACACACACGTGAATATAGTTT [CACACA_site1905]”, with 6.67; and “TACAAATTTATATAAAGTACAAAAAATAATAAAAAT [XGTACX_site7355]”, with 7.3; and “AAAAAAAAAAAAAGTGCACACATAAAAATATGATCT [CACACA_site8090]”, with 11.2. Consider “ACATATGTTTTATGTAGTACTTATTTATTATTATAT [XGTACX_site7528]”, for which the “gcPBM binding intensity (ln)” value was 7.27.

With “TCAAATAATAAGTATGCATGCTATATTTATATATAC [TGCATGCA_site920]”, the “gcPBM binding intensity (ln)” value was found to be 6.95. Turning to “TACATTTTACTTGTTACACACATATAAAATTAACCA [CACACA_site2922]”, the “gcPBM binding intensity (ln)” value came out at 7.13. The same measure for “AAACGTACATAATACACACACATGTATACCTATAAA [CACACA_site7051]”: 7.22; for “AGAAAAAAAAAAAGTACACACATATAATATATATAT [CACACA_site2973]”: 8.34. In the case of “AGTTAATGAATAGGCACACATATATCTGTATAAATA [CACACA_site4448]”, the “gcPBM binding intensity (ln)” value stood at 6.78. As for “ATATATTATATAATATGTACATAATAAAATTTAAAT [XGTACX_site1900]”, the “gcPBM binding intensity (ln)” value is 7.13. As for “ATCTAAATAATATATATATATAATATTAATAATATA [CACACA_negctrl_site1620]”, the “gcPBM binding intensity (ln)” value was determined as 7.01.

With “TTTTTATTTATATATATATATATATATTATATATAA [CACACA_negctrl_site1654]”, the “gcPBM binding intensity (ln)” value stood at 7.34. As for “CTTGTCATTGGGCACACACACATGTATAGGTTATTA [CACACA_site3058]”, the “gcPBM binding intensity (ln)” value worked out at 7.19. On to “GAGTAAACATATATATGTACATAAAGTTAACATTGC [XGTACX_site2225]”, for which the “gcPBM binding intensity (ln)” value is 7.15.

Take “TGAACACCCACAAATACACACAAAAAAAATAAATAA [CACACA_site248]”: the “gcPBM binding intensity (ln)” value is 7.03.

With “ATTTTTTTTCATATAACACACACACTAATATAATGT [CACACA_site9226]”, the “gcPBM binding intensity (ln)” value is 7.34. Turning to “AATAAATAAATATATACACACATATCTGTCTACATA [CACACA_site5708]”, the “gcPBM binding intensity (ln)” value was found to be 6.89. Turning to “ACAAGATCTAGATACACACACATATCTCTCAATCTA [CACACA_site6453]”, the “gcPBM binding intensity (ln)” value amounted to 7.04. Turning to “AATAATTGAAAAACACAAAAATGATTTTCCATAAAT [CACACA_negctrl_site1555]”, the “gcPBM binding intensity (ln)” value was determined as 6.51.

Consider “GGGACAGGACGAAAAAATAAATAAATAAATAAAAAA [CACACA_negctrl_site155]”, for which the “gcPBM binding intensity (ln)” value worked out at 7.04. As for “GTAAAAAAATAGCACACACACAAAAACACGCACAAA [CACACA_site6723]”, the “gcPBM binding intensity (ln)” value came to 7.52. In the case of “GGAATAGTAATATATACACACAAATACAGATATATA [CACACA_site4213]”, the “gcPBM binding intensity (ln)” value amounted to 6.94. Then “AATTGAATTTTAAAAGAAAAAAAAAAAAAAAAATAA [XGTACX_negctrl_site195]”, with 6.77; and “TGGAGGTCAGTTCACAGTACCCAGAAACTCTACGGA [XGTACX_site4927]”, with 6.75. As for “TTTTTTCAATTTTTTTTAAATAAACCACAAAAAAAA [CACACA_negctrl_site1701]”, the “gcPBM binding intensity (ln)” value was determined as 6.94.

For “TAATGTAAAATTTAGAGTACATAAAAAATTGGATGA [XGTACX_site7225]”, the “gcPBM binding intensity (ln)” value turned out to be 7.07. Then “AAATAAAAAAAGAAACGTACATATATTGGTTTCGTC [XGTACX_site3510]”, with 6.96; and “AAACTATAATATATTACACACATATATTTTATAAGT [CACACA_site6460]”, with 6.92; and “AACATACATAAACACACACACACACCCACAGAGACA [CACACA_site4430]”, with 7.23.

With “AAAAAAATAAGTATTGAACAATTAAGGAAAAACATG [GTGCAC_negctrl_site464]”, the “gcPBM binding intensity (ln)” value stood at 7.27.
